Test results as given in the RNAGym collection of RNA variant scans (doi:10.7554/elife.90254).
The source gives no read counts; variants with many changes may rest on few reads.

B1: LINE1-mini (parent)
chain: GGCAGAGCUCAACACAGCGUGGCAAAGUGGCUGUGGCUAGACUGCC

Variants of: B1
Assay: self-cleavage, relative activity (ratio to wild type); higher = more cleavage; in vitro, sequencing; the parent is a self-cleaving ribozyme

Variant | self-cleavage
GGCCGAGCUCAACACAGCGUGGCAAAGUGGGUGUGGCUACACUGGC [A4C C31G G40C C45G] | 0.05
GGCCUAGCUCAACACAGCGUGGCAAAGUGGCAGUUGCUAGACUGCC [A4C G5U U32A G35U] | 0.06
GGCCUCGCUCAACACAGCGUGGCAAAGUGGCUGAGGCUAGACUGCC [A4C G5U A6C U34A] | 0
GGCCGAGCUCAACACAGCGUGGCAAAGUGGGUGUGUCUAGACUGCC [A4C C31G G36U] | 0.02
GGCCGAGCUCAACACACAGUGGCAAAGUAGCUGUGGCUAGACUGCC [A4C G17C C18A G29A] | 0.03
GGCCGAUCUCAACACAGUGUGGCAAAGUGGCUGUGGCUAGACUGCC [A4C G7U C18U] | 0.12
GGCCGAGCUCAACACAUCGUGGCAAACUGAAUGUGGCUAGACUGCC [A4C G17U G27C G30A C31A] | 0.64
GGCCGAGCUCAACACAACGUGGCAAAGUGGCUGUGGAUAUACUGCC [A4C G17A C37A G40U] | 0.05
GGCCUAGUUCAACACAGCGUGGCAAAGUGGCUGUGGCUAGACUGCC [A4C G5U C8U] | 0.23
GGCCGAGCUCAACACAGCGUGGCAAAGUGGCUGUGGCUAGAUUUCC [A4C C42U G44U] | 0.2
GGCCUACCUCAACACAGCGUGGCAAAGUUGCUGUGGCUAGACUGCC [A4C G5U G7C G29U] | 0.04
GGCCGAGCUCAACACAGUGUGGCAAAGUGGCUGUGGCUAGACUGGC [A4C C18U C45G] | 0.02
GGCCGAGCUCAACACAGCGUGGUAAAGGGGCUGUGGCUAGACUGGC [A4C C23U U28G C45G] | 0.01
GGCCGAUCUCAAUACAGCGUCGCAAAUUCGCUGUGGCUAGACUGCC [A4C G7U C13U G21C G27U G29C] | 0.37
GGCCUAGCUCAACACAGCGUGGCAAAGUGGCUGAGGCUAGACUGCC [A4C G5U U34A] | 0.06
GGCCGAGCUCAACACAGCGUGGAUAAGUGGCUGUGGCUAGACUGCC [A4C C23A A24U] | 0.12
GGCCGAGCUCAACACAGCGUGGUAUAGAGGCUGUGGCUAGACAGCC [A4C C23U A25U U28A U43A] | 0.15
GGCCAAGCUCAAGACAGCGUGACCAAGUGGCUGUGGCUAGACUGCC [A4C G5A C13G G22A A24C] | 0.09
GGCCGAGCUCAACACACCUUGGGAAAGUGGCUGUGGCUAGACUGCC [A4C G17C G19U C23G] | 0.03

Variant | self-cleavage
GGCCAAGCUCAACACCGUGUGGCAAUGAGGCUGUGGCUAGACUCCC [A4C G5A A16C C18U A26U U28A G44C] | 0.02
GGCCGAGCUCAACACAGUGUUGCAAAGUGGCUGUGGCUAGACUGCC [A4C C18U G21U] | 0.28
GGCCGAUCUCAACACAGCGUGGCAAAGCGGCUGUGGCUGGACUGCC [A4C G7U U28C A39G] | 0.04
GGCCGAGCUCAACACAGCGUCGCAAAGUGGCUGUGGCUAGACUGAC [A4C G21C C45A] | 0.21
GGCCGAGCUCAACACAUCGUAGCAAAGUGGCUGUGGCUAGACUGCC [A4C G17U G21A] | 0.02
GGCCAAGCUCAACACAGCGUGGCAAAGUGCCUGUGGCUAGACUGCC [A4C G5A G30C] | 0.06
GGCCGAGCUCAACACAGCGUGGUAAAGUGGCUGUGGCUAGAAUGCC [A4C C23U C42A] | 0.35
GGCCGAGCUCAACACAGCGUGGCAAAGUGGUUGUGGCUAGCUUGCC [A4C C31U A41C C42U] | 0.06
GGCCGAGCUCAACACAGCCUCGCAAAGUGCCUGUGGCUUGACUGCC [A4C G19C G21C G30C A39U] | 0.13
GGCCCAGCUCAACACAGCGUGGCAACGUAGCUGUGGCUAGACUGCC [A4C G5C A26C G29A] | 0.06
GGCCGACCUCAACACUGCGUGGCACAGGGGCUGUGGCUAGACUGCC [A4C G7C A16U A25C U28G] | 0.05
GGCCAAGCUCAACACAGCGUGGCAAAGUGGCUGUGGCUGGACUGCC [A4C G5A A39G] | 0.01
GGCCGAGCUCAACACAUCGUGGCAAAAAGGCUGUGGCUAGACUGCC [A4C G17U G27A U28A] | 0.49
GGCCGAGCUCAACACAGCAUGGCAAACUGGUUGUGCCUAGACUGCC [A4C G19A G27C C31U G36C] | 0.06
GGCCGAGCUCAACACAACGUGGCAAAGUGGCUGUGGCUAGAGUGCC [A4C G17A C42G] | 0.11
GGCCAAGCUCAACUCAGCGUGGCAAAGUGGCUGUGGCUAGAAGGCC [A4C G5A A14U C42A U43G] | 0.03
GGCCGAGCUCAACACACCGUGGCAAAAUGUCUGUUGCAAGACUGCC [A4C G17C G27A G30U G35U U38A] | 0.01
GGCCGAGCUCAACACAACUUGGCAAAGUGGAUGUGGCUAGUCUGCC [A4C G17A G19U C31A A41U] | 0.03
GGCCGAGCUCAACACAGUGUGGCAAAGUGGCUGUAGCUAGACUGUC [A4C C18U G35A C45U] | 0.03

Variant | self-cleavage
GGCCGAGCUCAACACAGCGUAGCAAAGUGGCUGUGGUUAGAAUACC [A4C G21A C37U C42A G44A] | 0.02
GGCCGAGCUCAACACAACGUGGAAAAGUGGCUGUGGCUAGACUGCC [A4C G17A C23A] | 0.05
GGCCGAGCUCAACACAACGUGGCAAAAUGGCUGUGGCUAGACUGCC [A4C G17A G27A] | 0.07
GGCCCAGCUCAACACAGCGUGACAAAGUGGCUAUGGCUAGACUGCC [A4C G5C G22A G33A] | 0.03
GGCCGAGCUCAACACACCGUGGCAAAGUGGCUGUGGCUACACUGCC [A4C G17C G40C] | 0.04
GGCCUAGCUUAAAACAGCGUGGCAAUGUGGCUGUAGCUAGACUGCC [A4C G5U C10U C13A A26U G35A] | 0.02
GGCCGAUCUCAAUAUAGGGUGGCAAAGUGGCUGUGGCUAGACUGCC [A4C G7U C13U C15U C18G] | 0.12
GGCCGAGCUCAACACACCGUGGCAAAGUGGCUGUGGCUAGACUGCG [A4C G17C C46G] | 0.02
GGCCGAGCUCAACACAUCGUGCCAAAGUGGCUCUGGUCAGACUGCC [A4C G17U G22C G33C C37U U38C] | 0.08
GGCCAAGCUCAACACAGCGUGGCAAAGUGGCUGUGGCUAGACAGCC [A4C G5A U43A] | 0
GGCCGAGCUCAACACAGCGUAGCAAAGUGGCUGUGGCUAGACUCCC [A4C G21A G44C] | 0.32
GGCCGAGCUCAACACAUCGUGGCAAAGUGGUUGUGGCUAGAGUGCC [A4C G17U C31U C42G] | 0.05
GGCCAAGCUCAAAACAGCGUGGCAAAGUGGCUGUGGCUAGACUGCC [A4C G5A C13A] | 0.08
GGCCGAGCUCAACACAGCGUGGCAAAGUGGAUGUGGCUAGAUUGCC [A4C C31A C42U] | 0.03
GGCCUAUCUCAACACAGCGUGGCAGAGUGGCUGUGGCUAGACUGCC [A4C G5U G7U A25G] | 0.03
GGCCAAGCUCAACACAGCGUGGCAAAGGGCCUGUGGCUAGACUGCC [A4C G5A U28G G30C] | 0.48
GGCCGAAUUCAACACAGCGUGGCAAAGUGGCUGUGGCUAGACUGCC [A4C G7A C8U] | 0.14
GGCCGAGCUCAACACAGCGUAGCAAAGUGGCUGUGGAUAGACUACC [A4C G21A C37A G44A] | 0.11
